Measured values taken from PubChem BioAssay AID1508642 (National Center for Advancing Translational Sciences (NCATS), 2021).
The whole screen tested about 43,000 compounds, of which about 200 (0.47%) were called active. About 12% were inconclusive and are not listed. The call rests on the fitted dose curve; in most records, active means well fitted cell-killing curve with a large enough effect; inconclusive means small, poorly fitted or top-dose-only effect, or effect the other way; inactive means flat fitted curve, though single readings scatter. Some of the results follow.
On the % scale 0 is the no-effect control and ±100 the full control effect.

Experiment: Cell viability qHTS assay in S16 Pmp22-F2sN cells; further: nearly all actives have a fitted effect of over 65% in size
Conditions: S16 Pmp22-F2sN Schwann cells viability, CellTiter-Glo, 24 h; series mostly up to 57.5 µM; activity change, negative = cytotoxicity: at the top concentration
How it was run: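 S16 Pmp22-F2sN Schwann cells (500-1,000/well) in phenol-red-free DMEM with 10% FBS received 23 nL compound by pin tool for 24 h at 37 °C. Viability was then read as CellTiter-Glo luminescence after 15 min at room temperature.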
For COC(=O)c1ccc2c(c1)N(CC(=O)Nc1cccc(Cl)c1C)C(=O)c1ccccc1S2, the “activity change, negative = cytotoxicity” value was inactive: -1.69%. With CC(C)NC(=O)Cn1c(=O)nc(-c2ccccc2F)c2cc(Cl)ccc21 the “activity change, negative = cytotoxicity” value was inactive: 4.48%. With Cc1cn2c(=O)cc(COc3ccccc3NC(=O)c3ccc(C(C)(C)C)cc3)nc2s1 the “activity change, negative = cytotoxicity” value was inactive: 9.68%. With Cc1cccc(CNC(=O)c2oc3c(c2C)-c2nn(Cc4cccc(Cl)c4)cc2CC3)c1 the “activity change, negative = cytotoxicity” value was inactive: -2.01%. In the case of CCOc1ccc(NC(=O)Cn2c(=O)n(Cc3nc(-c4ccccc4)no3)c(=O)c3cc4c(cc32)OCO4)cc1, the “activity change, negative = cytotoxicity” value was inactive: 1.13%. In the case of CC(=O)c1ccc(NC(=O)c2nc(-c3ccccc3)n(-c3ccc(Cl)cc3)n2)cc1, the “activity change, negative = cytotoxicity” value was inactive: 14.4%. With CC(C)c1cnc2c(c1SCc1cccc(F)c1)c(=O)n(C)c(=O)n2C the “activity change, negative = cytotoxicity” value was inactive: 6.9%. In the case of Cc1ccc(-c2nc3nc(C)cc(C)n3c2Nc2ccc3c(c2)OCCO3)cc1, the “activity change, negative = cytotoxicity” value was inactive: -24.8%. In the case of CC(=O)N1CCc2cc(Br)cc(S(=O)(=O)N3CCC(C)CC3)c21, the “activity change, negative = cytotoxicity” value was inactive: 9.51%. With Cc1ccc(Cn2ccn(CC(=O)Nc3c(C)cc(C)cc3C)c(=O)c2=O)cc1 the “activity change, negative = cytotoxicity” value was inactive: -0.499%. For CCOC(=O)c1cc2c(=O)n3ccccc3nc2n(CCOC)c1=NC(=O)C(C)(C)Oc1ccc(Cl)cc1, the “activity change, negative = cytotoxicity” value was inactive: 9.31%. With Cc1nc2nc(NC(=O)C(C)(C)C)[nH]n2c(=O)c1Cc1ccccc1 the “activity change, negative = cytotoxicity” value was inactive: 3.25%. For Cc1cccc(-c2nc3nc(C)cc(NCc4ccccc4Cl)n3n2)c1, the “activity change, negative = cytotoxicity” value was inactive: -17.8%. In the case of Fc1cc(F)c2ncc3c(-c4ccccc4)nn(-c4cccc(Cl)c4)c3c2c1, the “activity change, negative = cytotoxicity” value was inactive: 0.195%. For CC(C)OCCCNC(=O)C(=O)Nc1ccc2nc3n(c(=O)c2c1)CCCCC3, the “activity change, negative = cytotoxicity” value was inactive: 25%. For Cc1cccc(Cn2c(=O)n(Cc3ccccc3)c(=O)c3oc4ccccc4c32)c1, the “activity change, negative = cytotoxicity” value was inactive: -1.28%. In the case of Cc1ccccc1NC(=O)C1CCN(C(=O)c2cnn(-c3ccccc3)c2-n2cccc2)CC1, the “activity change, negative = cytotoxicity” value was inactive: -21.9%. In the case of Cc1ccc(Sc2ccc(N3CCC(C(=O)Nc4ccc(C)c(F)c4)CC3)nn2)cc1, the “activity change, negative = cytotoxicity” value was inactive: 13.2%. For Cc1ccc(-n2c(SCC(=O)NCc3ccccc3)nc3n[nH]c(C)c3c2=N)cc1Cl, the “activity change, negative = cytotoxicity” value was inactive: 1.06%. With O=C(NCC(c1cccs1)S(=O)(=O)c1cccs1)c1ccc(Cl)cc1 (stereo not given) the “activity change, negative = cytotoxicity” value was inactive: 4.27%. With CC1CCN(c2oc(-c3ccc(COc4ccccc4)o3)nc2C#N)CC1 the “activity change, negative = cytotoxicity” value was inactive: -3.02%. For Cc1cc(C)c(NC(=O)CN2C(=O)c3cccnc3Oc3ccc(C)cc32)c(C)c1, the “activity change, negative = cytotoxicity” value was inactive: 2.04%. For Cc1ccc(-c2cc(NC(=O)COc3ccc(Cl)c(C)c3)on2)cc1, the “activity change, negative = cytotoxicity” value was inactive: -0.509%. With CCN1CCN(C(=O)Cn2ncc3c4ccccc4n(Cc4ccccc4)c3c2=O)CC1 the “activity change, negative = cytotoxicity” value was inactive: -1.42%. For Cc1ccc(/C=C/C(=O)Nc2ccc(S(N)(=O)=O)cc2)o1, the “activity change, negative = cytotoxicity” value was inactive: 4.68%. In the case of Nc1nnc(SCC(=O)Nc2ccccc2)s1, the “activity change, negative = cytotoxicity” value was inactive: 3.5%. In the case of COc1cccc(NC(=O)Cn2c(=O)n(CC(=O)NCc3ccc(C)cc3)c(=O)c3sccc32)c1, the “activity change, negative = cytotoxicity” value was inactive: 1.03%. With CCOC(=O)c1cccc(NC(=O)c2cn(-c3cccc(OC)c3)c(=O)c3ccccc23)c1 the “activity change, negative = cytotoxicity” value was inactive: 3.21%. For Cc1cc(C)c(Cn2c3ccccc3c3cnn(CC(=O)NCc4ccccn4)c(=O)c32)c(C)c1, the “activity change, negative = cytotoxicity” value was inactive: -11%. For COc1ccc2cc(C(=O)NCc3ccc4c(c3)CCN4C(=O)c3ccccc3)[nH]c2c1, the “activity change, negative = cytotoxicity” value was inactive: 6.26%. For Cc1cccc(C(=O)NC(=O)Nc2ccc(-c3cc(C(F)(F)F)nn3-c3ccccc3)cc2)c1, the “activity change, negative = cytotoxicity” value was inactive: 8.1%. In the case of COc1ccc(C(=O)Nc2ccc(OCc3cc(=O)n4ccsc4n3)cc2)cc1OC, the “activity change, negative = cytotoxicity” value was inactive: 5.58%. With CCOc1ccc(S(=O)(=O)c2cn(Cc3ccccc3)c3ccc(OCC)cc3c2=O)cc1 the “activity change, negative = cytotoxicity” value was inactive: -7.29%. For Cc1cc(NC(=O)NCc2ccc3c(c2)CCN3C(=O)c2ccccc2)ccc1Br, the “activity change, negative = cytotoxicity” value was inactive: -8.71%. In the case of CC(C)(C)OC(=O)N1CCC(c2c(C(=O)NCc3ccco3)cnn2-c2ccccc2)CC1, the “activity change, negative = cytotoxicity” value was inactive: -2%. With Cc1ccc(NC(=O)Cn2cnc3nc4c(cc3c2=O)CCCC4)cc1Cl the “activity change, negative = cytotoxicity” value was inactive: 1.36%. For Cc1cc(=O)n2nc(N3CCC(C(=O)NCc4ccccc4)CC3)sc2n1, the “activity change, negative = cytotoxicity” value was inactive: 24.3%. With Cc1cc(C)c2c(=O)cc(C(=O)Nc3ccc(S(=O)(=O)N(C)Cc4ccccc4)cc3)oc2c1 the “activity change, negative = cytotoxicity” value was inactive: 7.33%. In the case of O=C(C1CCN(S(=O)(=O)c2cccc3nonc23)CC1)N1CCN(c2ccccc2F)CC1, the “activity change, negative = cytotoxicity” value was inactive: -13.1%. With CCOC(=O)c1sc2ccccc2c1S(=O)(=O)N1CCN(c2cccc(C)c2C)CC1 the “activity change, negative = cytotoxicity” value was inactive: 6.35%. In the case of CCC(C(=O)OC)n1cnc2c(cnn2-c2ccc(F)cc2)c1=O (stereo not given), the “activity change, negative = cytotoxicity” value was inactive: 4.16%. In the case of COc1ccc(-c2nc(SCC(=O)c3ccc(OC)c(Br)c3)n[nH]2)cc1, the “activity change, negative = cytotoxicity” value was inactive: -6.36%. With COc1cc(NC(=O)C2CCCN(S(=O)(=O)c3ccc4c(c3)CCCC(=O)N4)C2)cc(OC)c1 (stereo not given) the “activity change, negative = cytotoxicity” value was inactive: 11.1%. In the case of COc1cc(Cl)c(C)cc1NC(=O)Cn1ncc2c(=O)oc3ccccc3c21, the “activity change, negative = cytotoxicity” value was inactive: 1.01%. With CCOc1cccc(C2c3[nH]c4ccccc4c3CCN2C(=O)CCC2CCCC2)c1 (stereo not given) the “activity change, negative = cytotoxicity” value was inactive: 12%. With CCC(Sc1nc2nccnc2c(=O)n1Cc1ccc(F)cc1)C(=O)NC1CCCCC1 (stereo not given) the “activity change, negative = cytotoxicity” value was inactive: 7.98%. For COc1ccc(CNC(=O)c2ccc3c(c2)N(Cc2ccccc2F)C(=O)c2ccccc2S3(=O)=O)cc1, the “activity change, negative = cytotoxicity” value was inactive: 13.8%. For COCCNC(=O)CCc1c(C)nc2c(c(C)nn2-c2ccc(C)cc2)c1C, the “activity change, negative = cytotoxicity” value was inactive: -5.09%. In the case of Cc1cc(F)ccc1NC(=O)CN(C)S(=O)(=O)c1ccc(C(=O)N2CCOCC2)s1, the “activity change, negative = cytotoxicity” value was inactive: 21.9%. For CCN(CC)C(=O)CSc1nc2cc3c(cc2c(=O)n1CCCCCC(=O)NCCc1ccc(OC)c(OC)c1)OCO3, the “activity change, negative = cytotoxicity” value was inactive: 5.35%. With CCc1ccccc1NC(=O)CSC1=Nc2ccccc2C2=NC(Cc3ccccc3)C(=O)N12 (stereo not given) the “activity change, negative = cytotoxicity” value was inactive: -11.6%. For O=C(COc1ccc([N+](=O)[O-])cc1)Nc1cccc2cccnc12, the “activity change, negative = cytotoxicity” value was inactive: -1.9%. With COc1ccc(OCc2ccc(-c3nc(C#N)c(N4CCN(c5cccc(Cl)c5)CC4)o3)o2)cc1 the “activity change, negative = cytotoxicity” value was inactive: 2.07%. For CCCN(CCC)c1nc(-c2ccccc2F)nc2ccccc12, the “activity change, negative = cytotoxicity” value was inactive: 26.2%. For CCc1cccc(NC(=O)CCc2nc3cccnc3n2-c2ccccc2)c1, the “activity change, negative = cytotoxicity” value was inactive: 4.86%. With CSc1ccc(CCNC(=O)c2ccc(CS(=O)(=O)c3ccc(Br)cc3)o2)cc1 the “activity change, negative = cytotoxicity” value was inactive: -5.79%. With COCCNC(=O)c1cccc(Nc2nc3ccccc3n3nnnc23)c1 the “activity change, negative = cytotoxicity” value was inactive: 0.897%. In the case of CCOc1cc(CNC(=O)c2ccc3c(c2)N(C)C(=O)C2CCCCN32)cc(OCC)c1OCC (stereo not given), the “activity change, negative = cytotoxicity” value was inactive: 7.16%. In the case of O=C(Nc1ccc(F)cc1F)c1cc2c(=O)n3ccccc3nc2s1, the “activity change, negative = cytotoxicity” value was inactive: 6.71%. In the case of Cc1ccc(-n2nc(C)c3c(C(=O)NCc4ccc(F)cc4)cc(C)nc32)cc1, the “activity change, negative = cytotoxicity” value was inactive: 0.682%.
